Assay results published in PubChem BioAssay AID445 (National Center for Advancing Translational Sciences (NCATS), 2006).
The whole screen tested about 110,000 compounds, of which about 40 (0.04%) were called active. Inconclusive results, whose numbers are uncertain, are shown with a selection of clear calls. The call rests on the fitted dose curve; in most records, active means well fitted curve in the direction sought with a large enough effect in the signal ratio (not every such curve was filed as active); inconclusive means small, poorly fitted or top-dose-only effect, or a change in a side signal; inactive means flat fitted curve, though single readings scatter; the % refers to the signal ratio. Where the call is inconclusive, the potency comes from a doubtful curve fit.

experiment: IkB Signaling; conditions: ABC-DLBCL IkBa-CBG/CBR dual luciferase ratio (green luciferase fused to IkBa over red control in OCI-Ly3 lymphoma cells), 4 h; IkBa stabilization activation: at 57.1 µM (top of the series), scaled: untreated 0%, proteasome inhibitor 100% unless noted;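 on IkBa stabilization activation: 0% = basal untreated cells and 100% = reference inhibitor full response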
In short: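 In this assay, an IκBα–CBG68 fusion accumulates when IKK-driven degradation is blocked; native CBR normalizes for cell number. OCI-Ly3 cells were treated 4 h with compound and doxycycline, then green and red light read after Chroma-Glo addition.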
Potency means the concentration at half of the fitted maximal effect.

SMILES	IkBa stabilization activation	Potency
Cc1cccc(-n2c(SCC(=O)Nc3ccc(C)c(C)c3)nc3n[nH]c(C)c3c2=N)c1	inconclusive: 1.6% [signal inhibitor]	
CCCCC(CC)CNC(=O)CCCCCn1c(=O)[nH]c2ccsc2c1=O (centres undefined)	inconclusive: 3.32% [signal inhibitor]	
CC(C)c1ccc(NC(=O)c2ccc(=O)n(Cc3ccccc3)c2)cc1	inconclusive: 1.24% [signal inhibitor]	
CCCCn1c(=O)[nH]c(=O)c2c1nc(CN1C(=O)c3ccccc3S1(=O)=O)n2CCC	inactive	
CCOc1ccc(-c2noc(CCC(=O)O)n2)cc1		inconclusive: 1.26 µM [signal inhibitor, full curve]
O=C(CN1C2CCCC1CC(NC(=O)c1ccco1)C2)Nc1ccccc1C(F)(F)F (centres undefined)	inconclusive: 1.89% [signal inhibitor]	
CCOC(=O)c1c(NC(C)=O)c2c3c(sc2n1Cc1cc(C)ccc1C)CCCC3	inactive	
CCOc1ccccc1NC(=O)Cn1c(=O)n(Cc2ccco2)c(=O)c2sc3ccccc3c21	inactive	
C=CCn1c2ccccc2c2nnc(SCN3C(=O)c4ccccc4C3=O)nc21	inconclusive: 1.46% [signal inhibitor]	
CCN(CC)c1ccc2c(c1)CCCN2		inconclusive: 39.8 µM [rising, single point]
O=C(O)CCn1ccc2cc(S(=O)(=O)N3CCCCCC3)ccc21	inconclusive: 1.24% [signal inhibitor]	
CC(=O)c1cccc(NC(=O)c2cc3ccccn3n2)c1	inconclusive: 19.1% [signal inhibitor]	
O=C(c1noc2c1CCc1ccccc1-2)N1CCCc2ccccc21	inconclusive: 4.64% [signal inhibitor]	
Cc1c(C(=O)OCCOC(C)C)[nH]c2c1C(=O)CC(c1ccco1)C2 (centres undefined)	inconclusive: 8.99% [signal activator]	
COc1cc(Nc2nc(-c3ccc(OC)c(OC)c3)nc3ccccc23)cc(OC)c1		inconclusive: 25.1 µM [signal inhibitor, single point]
Cc1ccc(NC(=O)OCC(F)(F)C(F)F)cc1NC(=O)OCC(F)(F)C(F)F	inconclusive: 2.11% [signal inhibitor]	
COc1ccccc1Nc1c2c(nc3ccc(NC(=O)c4ccc(N(C)C)cc4)cc13)CCCC2	inconclusive: -3.56% [signal inhibitor]	
CC(C)[C@H](NC(=O)OC(C)(C)C)c1nnc(SCC(=O)Nc2ccc(Br)cc2)o1	inconclusive: 4.91% [signal inhibitor]	
Cc1ccc(-n2c(=O)c3oc4ccccc4c3n(Cc3cccc(F)c3)c2=O)cc1C	inconclusive: 4.72% [signal inhibitor]	
O=c1c(-c2cc(F)cc(F)c2)nc2cnc(N3CCOCC3)nc2n1Cc1cccs1	inactive: -0.71% [at 11.4 µM, scaled: untreated 0%, proteasome inhibitor 100%]	
Cc1nc2nc(NCc3ccc(Br)cc3)[nH]n2c(=O)c1Cc1ccccc1	inconclusive: 2.49% [signal inhibitor]	
Cc1oc2ncn(CC(C)C)c(=O)c2c1C(=O)NCCCN1CCCCC1C (centres undefined)	inactive	
CCc1ccc(Cn2c(CNS(=O)(=O)c3ccc4c(c3)CCCC4)nc3cccnc32)cc1	inactive	

SMILES	IkBa stabilization activation	Potency
CCOc1ccc(NC(=O)c2oc3ccccc3c2NC(=O)Cc2cccs2)cc1	inconclusive: 0.668% [signal inhibitor]	
CC(C)C(=O)Nc1ccc2c(c1)nc1n2CCSC1	inactive	
CCc1ccc2c(c1)c(=O)c(C(=O)c1ccccc1)cn2CC(=O)Nc1ccc(C)c(Cl)c1	inconclusive: 1.46% [signal inhibitor]	
CCc1ccc2c(c1)c(=O)c(C(=O)c1ccc(C)cc1)cn2CC(=O)Nc1ccccc1C	inconclusive: 1.85% [signal inhibitor]	
Nc1n[nH]c(-c2ccc(F)cc2)n1	inactive	
COc1ccc(-c2nnc(SCC(=O)NCCc3ccccc3)nc2-c2ccc(OC)cc2)cc1	inconclusive: -0.759% [signal inhibitor]	
CC(NS(=O)(=O)c1ccccc1)C(=O)Nc1nccs1 (centres undefined)	inconclusive: -0.794% [signal inhibitor]	
Cc1ccc(NC(=O)CSc2nc3nccnc3c(=O)n2CCc2c[nH]c3ccccc23)c(C)c1	inactive	
O=C(Cc1ccc(NC(=O)N2CCCCc3ccccc32)cc1)Nc1ccccc1Br	inconclusive: 0.154% [signal inhibitor]	
CCSc1nnc(NC(=O)C2CCCCC2)s1		inconclusive: 15.8 µM [signal inhibitor, partial curve]
CCCC(c1nnnn1Cc1ccco1)N1CCN(C2CCCC2)CC1 (centres undefined)	inactive	
CCCCN(CC)S(=O)(=O)c1ccc(C(=O)Nc2nnc(-c3cccs3)o2)cc1	inconclusive: 14% [signal inhibitor]	
CCNc1ncc2nc(-c3cccc(C#N)c3)c(=O)n(C)c2n1	inactive: -4.71% [at 11.4 µM, scaled: untreated 0%, proteasome inhibitor 100%]	
CCCCNc1cc(N2CCN(C3CCCCC3)CC2)c2noc3c2c1C(=O)c1ccccc1-3	inconclusive: -0.58% [signal inhibitor]	
CN(C)c1ccc(-c2nc(Nc3ccncc3)c3ccccc3n2)cc1	inactive: -6.68% [at 11.4 µM, scaled: untreated 0%, proteasome inhibitor 100%]	
Cc1cc(=O)c2cc(Cl)ccc2[nH]1	inconclusive: 4.85% [signal inhibitor]	
Cc1nc2c(C(=O)NCCc3ccccc3)c[nH]n2c(=O)c1Cc1ccccc1F	inconclusive: -8.15% [signal inhibitor]	
COc1cc(NC(=O)NCCn2nnc3cc(S(=O)(=O)N(C)C)ccc32)cc(OC)c1OC	inactive	
Nc1nc(CSc2nc3ccccc3[nH]2)nc(N2CCOCC2)n1	inactive	
COc1cc(NC(=O)c2cc3cc4ccc(OC)c(Cl)c4nc3s2)cc(OC)c1	inactive	
CCOc1ccc2nc(NC(=O)Nc3cccs3)sc2c1	inconclusive: -7.39% [signal inhibitor]	
COc1ccc(-c2nc3c4ccccc4n(CC(=O)Nc4ccc(C(C)=O)cc4)c(=O)n3n2)cc1	inactive	
Cc1nc2ccc(S(=O)(=O)NCC(=O)Nc3ccc(C)c(Cl)c3)cc2s1	inconclusive: 1.19% [signal inhibitor]	

SMILES	IkBa stabilization activation	Potency
Cc1cc(C)cc(NC(=O)CSc2nc3c(cnn3-c3ccc(F)cc3)c(=O)[nH]2)c1	inconclusive: 3.47% [signal inhibitor]	
Cc1cc(SCC(=O)Nc2ccc(C(F)(F)F)cc2)nc(=O)[nH]1	inactive	
CCCCOC(=O)c1ccc(NC(=O)c2cc(=O)c3ccccc3o2)cc1	inconclusive: 8.99% [signal inhibitor]	
O=C(O)CCCn1cc(NC(=O)COc2ccccc2F)cn1	inconclusive: 1.12% [signal inhibitor]	
O=C(Nc1ccc(OC(F)(F)F)cc1)C(NS(=O)(=O)c1cccc2nsnc12)c1ccccc1 (centres undefined)	inconclusive: -0.835% [signal inhibitor]	
O=C(CSc1ncc2c(n1)-c1cc(Cl)ccc1N(Cc1ccccc1)S2(=O)=O)NCc1ccccc1	inconclusive: 1.28% [signal inhibitor]	
CCOc1ccc(NC(=O)c2ncn(-c3ccccc3)n2)cc1	inconclusive: 8.74% [signal inhibitor]	
Cc1cc(C)c2nc(C(F)(F)F)nc(N3CCN(C(=O)c4ccco4)CC3)c2c1	inconclusive: 4.3% [signal inhibitor]	
Fc1ccc(Nc2c(-c3c[nH]c4ccccc34)nc3ccccn23)cc1		inconclusive: 0.1 µM [signal inhibitor, full curve, poor fit]
CCOc1ccc(S(=O)(=O)NCCc2csc3nc(-c4cccc(C)c4)nn23)cc1	inactive	
CC1=C(C(=O)Nc2ccccc2)C(c2ccco2)C(C#N)=C(SCC(=O)OC(C)C)N1 (centres undefined)	inconclusive: -1.31% [signal inhibitor]	
COc1ccc(CCNC(=O)c2ccc(CSCc3ccc(C)cc3)o2)cc1OC	inconclusive: -2.08% [signal inhibitor]	
COCCCNC(=O)C1CCN(C(=O)c2cc3sccc3n2Cc2ccc(Cl)cc2)CC1	inconclusive: -0.0433% [signal inhibitor]	
Cc1cccc(CSc2ccc3nnc(CCNS(=O)(=O)c4ccccc4)n3n2)c1	inconclusive: 1.73% [signal inhibitor]	
O=C(Nc1nnc(S(=O)(=O)N2CCCC2)s1)c1ccc(F)cc1	inactive	
COc1ccc(OC)c(-n2cnc3cc(C(=O)NC4CCCC4)ccc32)c1	inconclusive: -0.941% [signal inhibitor]	
OCCNCCCOc1cccc(Cl)c1Cl	inactive	
Cc1oc(-c2ccccc2)nc1CNS(=O)(=O)c1ccc(Cl)cc1	inconclusive: 1.9% [signal inhibitor]	
CCCOc1ccc(NC(=O)CC2C(=O)N(c3cccc(C)c3)C(=O)N2CCc2ccncc2)cc1 (centres undefined)	inconclusive: -1.97% [signal inhibitor]	
Cc1cccc(-c2nc(N3CCN(c4ccc(F)cc4)CC3)c3ccccc3n2)c1	inconclusive: 5.73% [signal inhibitor]	
CCOC(=O)N1CCN(C(=O)c2ccc3nc4ccsc4c(=O)n3c2)CC1	inactive	
COc1ccc(Nc2nc3c(S(=O)(=O)c4ccccc4)nnn3c3ccc(Cl)cc23)cc1OC	inactive	
Cc1ccc(-n2c(=O)c3c(cnn3C)n(CC(=O)Nc3cc(C)ccc3C)c2=O)cc1	inconclusive: -0.123% [signal inhibitor]	
